Among all 410,000 compounds or so, about 6,400 (1.6%) were called active. The shares of active, inactive and inconclusive entries below differ from those in the screen. The call rests on the fitted dose curve; in most records, active means well fitted inhibition curve with a large enough effect; inconclusive means small, poorly fitted or top-dose-only effect; inactive means no such curve, though single readings can be large or run the other way. No potency is given beside an inconclusive call; the fits are too rough.
What follows are compounds tested against Glucagon-like peptide 1 receptor (Homo sapiens) (UniProt P43220) (assay: qHTS of GLP-1 Receptor Inverse Agonists (Inhibition Mode)). Conditions: HEK293 GLP-1R CRE-luciferase, luminescence, 24 h, GLP-1R form is constitutively active; activity change, negative = inhibition: at 38.3 µM (top of the series) unless noted.
Chain of UniProt P43220 (P43220 whole entry, looked up): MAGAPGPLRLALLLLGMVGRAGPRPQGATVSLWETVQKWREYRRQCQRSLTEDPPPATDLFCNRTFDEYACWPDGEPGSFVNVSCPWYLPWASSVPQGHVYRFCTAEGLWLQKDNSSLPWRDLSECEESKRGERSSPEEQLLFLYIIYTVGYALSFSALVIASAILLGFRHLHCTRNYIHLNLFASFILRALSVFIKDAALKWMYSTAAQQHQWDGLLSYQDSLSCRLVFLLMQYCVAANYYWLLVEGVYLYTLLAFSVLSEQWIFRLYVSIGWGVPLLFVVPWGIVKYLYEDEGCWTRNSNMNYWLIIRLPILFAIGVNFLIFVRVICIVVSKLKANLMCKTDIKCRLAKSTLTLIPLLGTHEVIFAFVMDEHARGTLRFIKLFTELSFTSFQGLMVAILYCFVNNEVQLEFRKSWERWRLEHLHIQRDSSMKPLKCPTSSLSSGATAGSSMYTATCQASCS
How it was run: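 Luminescence readout: a drop in cAMP-driven luciferase signal flags inverse agonism at a constitutively active GLP-1R stably expressed in HEK293. Compound exposure lasted 24 hr at 37 deg C, 5% CO2.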
With `CCN(CC(=O)Nc1ccc(Cl)c(S(=O)(=O)N(C)C)c1)CC(=O)NC(C)C` the “activity change, negative = inhibition” value was inactive: 13%.
With `COc1ccc(OCC(O)CN2CCN(c3ccc(Cl)cc3)CC2)cc1` (stereo unspecified) the Potency was inconclusive [inhibitor, partial curve, poor fit].
For `COc1ccc(CCN(C)Cc2cccc3ccccc23)cc1OC`, the Potency was inconclusive [inhibitor, full curve].
`O=C(CC1CCOCC1)Nc1ccc(Cl)c(Cl)c1` was tested, and the Potency was inconclusive [inhibitor, single point].
`Cc1ccc(-n2c3c(c(=O)[nH]c2=O)C(NC(=O)c2ccccc2C)(C(F)(F)F)C(=O)N3)cc1` (stereo unspecified) was tested, and the “activity change, negative = inhibition” value was inactive: 13.5%.
In the case of `CC1(C(=O)NCc2cccc(C(F)(F)F)c2)CCN1CCc1ccccc1` (stereo unspecified), the Potency is reported as inconclusive [inhibitor, single point].
For `Cc1ccc(CNc2nc(-c3cccnc3)nc3ccccc23)cc1`, the Potency was inconclusive [inhibitor, single point].
For `CCOC(=O)c1cccc(NC(=O)c2ccc3nc(Cc4ccccc4)oc3c2)c1`, the Potency was inconclusive [inhibitor, partial curve, poor fit].
For `COc1cc(/C=N/NC(=O)CCN2CCN(C(c3ccccc3)c3ccccc3)CC2)ccc1O`, the Potency was inconclusive [inhibitor, partial curve, poor fit].
For `Cc1ccc(NC(=O)c2sc3nc4c(c(-c5ccco5)c3c2N)CCC4)cc1`, the Potency was inconclusive [inhibitor, partial curve].
In the case of `COc1ccc(CN2CCc3ccccc3C2)c(OC)c1`, the Potency is reported as inconclusive [inhibitor, single point].
`CC(=O)c1cc(F)c(N2CCCCCC2)cc1C` was tested, and the Potency was inconclusive [inhibitor, single point].
With `COc1ccccc1/C=C/C(=O)OCC(=O)NC(=O)NC1CCCC1` the Potency was inconclusive [inhibitor, partial curve, poor fit].
In the case of `COc1ccc(/C=C2\SC(=O)N(CC(=O)NCCCn3ccnc3)C2=O)cc1`, the Potency is reported as inconclusive [inhibitor, single point].
With `Cc1cc(-c2ccc(Cl)cc2)c2cnn(C(C)C)c2n1` the Potency was inconclusive [inhibitor, single point].
`CC(C)OCCCNC(=S)NNC(=O)c1ccc(Cl)c(Cl)c1` was tested, and the “activity change, negative = inhibition” value was inactive: 19.4%.
With `CCOC(=O)c1c(C)[nH]c(C2=NNC(=Nc3ccccc3OC)SC2)c1C` the Potency was inconclusive [inhibitor, partial curve, poor fit].
`CCN(CCCNC(=O)CCc1nc(-c2ccc(OC)cc2)no1)c1cccc(C)c1` was tested, and the Potency was inconclusive [inhibitor, partial curve, poor fit].
In the case of `c1ccc(CN(Cc2ccccc2)C(c2ccnc3ccccc23)c2nnnn2-c2ccc3c(c2)OCCO3)cc1` (stereo unspecified), the Potency is reported as inconclusive [inhibitor, single point].
In the case of `COc1ccccc1C=NN=C(NN=Cc1ccccc1OC)NN=Cc1ccccc1OC`, the Potency is reported as active: 2.24 µM.
`Cc1n[nH]c(C)c1S(=O)(=O)N(CC(=O)N1CCc2ccccc21)c1ccc(C(C)C)cc1` was tested, and the Potency was inconclusive [inhibitor, single point].
`CCCCC(=O)N(C)c1c(CC)nc2c(OCC(=O)c3ccc(Cl)cc3Cl)cccn12` was tested, and the Potency was inconclusive [inhibitor, single point].
With `COc1ccc(C(=O)Nc2ccc(C)cc2C(=O)c2ccccc2)cc1` the Potency was inconclusive [inhibitor, single point].
With `COc1ccc(/C=C2/SC(=O)N(CCNC(=O)C3COc4ccccc4O3)C2=O)cc1` (stereo unspecified) the “activity change, negative = inhibition” value was inactive: 8.24%.
With `Cc1ccc(NC(=O)Cn2c(=O)n(-c3ccccc3)c(=O)c3ccc(C(=O)NCc4ccc5c(c4)OCO5)cc32)c(C)c1` the “activity change, negative = inhibition” value was inactive: 12.1%.
`c1ccc2c(CSCCc3ccncc3)cccc2c1` was tested, and the Potency was inconclusive [inhibitor, single point].
In the case of `Cc1ccsc1/C=N\NC(=O)c1cc(C(C)(C)C)[nH]n1`, the activity change, negative = inhibition is reported as inactive: 5.81% [at 0.307 µM].
For `CN(CCNC(=O)C1CC(=O)N(c2ccc(F)c(Cl)c2)C1)Cc1ccccc1` (stereo unspecified), the Potency was inconclusive [inhibitor, single point].
`CCCCCc1cc(=O)oc2c(C(CCN3CCCC(C)C3)c3ccc(N(C)C)cc3)c(OC)cc(OC)c12` (stereo unspecified) was tested, and the Potency was inconclusive [inhibitor, partial curve, poor fit].
`COc1ccc2nc(C)cc(N3CCN(c4ccccc4)CC3)c2c1` was tested, and the Potency was inconclusive [inhibitor, single point].
`Cc1cccc(CNC(=O)c2ccc(NC(=O)N3CC(C)Sc4ccccc43)cc2)c1` (stereo unspecified) was tested, and the Potency was inconclusive [inhibitor, single point].
In the case of `CCOc1ccc(N/C(SCc2cccc([N+](=O)[O-])c2)=C(/C#N)C(N)=O)cc1`, the Potency is reported as inconclusive [inhibitor, full curve, poor fit].
With `CCC1=[N+](CC(=O)c2ccc(Br)cc2)CCn2c(C)ccc21` the Potency was inconclusive [inhibitor, partial curve].
`O=C(NCc1ccco1)C1Cc2c(-c3cccc(F)c3)ccnc2O1` (stereo unspecified) was tested, and the Potency was inconclusive [inhibitor, full curve, poor fit].
With `Cc1nn(C)c(C)c1NS(=O)(=O)c1c(C)n[nH]c1C` the “activity change, negative = inhibition” value was inactive: 0.788%.
In the case of `COc1ccccc1OCCCOc1ccc([N+](=O)[O-])cc1Cl`, the Potency is reported as inconclusive [inhibitor, single point].
In the case of `COCCCNCCCCOc1ccc(C)cc1[N+](=O)[O-]`, the Potency is reported as inconclusive [inhibitor, partial curve, poor fit].
For `CCC(CC)COC(=O)C(C#N)c1nc2ccccc2nc1N1CCN(CC)CC1` (stereo unspecified), the Potency was inconclusive [inhibitor, partial curve, poor fit].
With `Cc1ccccc1OCc1nc(-c2ccc(NC(=O)c3ccc4c(c3)OCO4)cc2)no1` the Potency was inconclusive [inhibitor, partial curve, poor fit].
For `CCc1cc2c3c(c1)C1(C(=O)N3C(C)(C)C=C2C)C(C#N)=C(N)Oc2[nH]c(=O)[nH]c(=O)c21` (stereo unspecified), the Potency was inconclusive [inhibitor, single point].
With `CC1(Cc2ccccc2Cl)C(=O)Nc2c(Cl)cccc21` (stereo unspecified) the Potency was inconclusive [inhibitor, single point].
`Cc1ccc(NC(=O)CN2C(=O)COc3ccc(S(=O)(=O)N4CCCCC4)cc32)cc1N(C)C` was tested, and the Potency was inconclusive [inhibitor, partial curve, poor fit].
`Cc1ccc(Cl)cc1S(=O)(=O)N1CCC(C(=O)NC2CCN(Cc3ccccc3)CC2)CC1` was tested, and the Potency was inconclusive [inhibitor, full curve, poor fit].
`CCOC(=O)[C@H]1[C@H]2COc3cc(OC)ccc3[C@@H]2N2C(=O)CN(Cc3ccc(C)cc3)C(=O)[C@@]12C` was tested, and the “activity change, negative = inhibition” value was inactive: -3.3%.
In the case of `Cc1cccc(N(C(=O)Cn2nnc3ccccc32)C(C(=O)NC(C)(C)C)c2ccsc2)c1` (stereo unspecified), the Potency is reported as inconclusive [inhibitor, partial curve, poor fit].
`CCc1ccccc1NC(=O)CNC(=O)c1cccc(S(=O)(=O)N2CCN(Cc3ccccc3)CC2)c1` was tested, and the Potency was inconclusive [inhibitor, single point].
For `O=C1CC(Nc2ccccc2)C(=O)N1CCc1ccccc1` (stereo unspecified), the Potency was inconclusive [inhibitor, single point].
For `COc1ccc(S(=O)(=O)Nc2cccc(S(=O)(=O)N(C)C)c2)cc1[N+](=O)[O-]`, the “activity change, negative = inhibition” value was inactive: 13.9%.
In the case of `O=C1CC(C(=O)Nc2ccc(Cl)cc2)S/C(=N\N=C\c2ccco2)N1` (stereo unspecified), the Potency is reported as inconclusive [inhibitor, partial curve].
`O=[N+]([O-])c1cc(C(F)(F)F)ccc1NCCOc1ccccc1` was tested, and the Potency was inconclusive [inhibitor, single point].
With `CC(C)Cc1nc(N2CCCCC2)c(C#N)c2c1CCC2` the Potency was inconclusive [inhibitor, partial curve, poor fit].
With `COc1ccc(CN(Cc2ccco2)c2cnc(S(C)(=O)=O)nc2C(=O)Nc2ccc(F)cc2)cc1` the Potency was inconclusive [inhibitor, partial curve, poor fit].
For `Cc1noc(C)c1COc1ccc(C(=O)OCC(=O)N2CC3(C)CC2CC(C)(C)C3)cc1` (stereo unspecified), the Potency was inconclusive [inhibitor, full curve, poor fit].
With `Cc1cc(Br)ccc1OCC(=O)NNC(=O)Cc1ccccc1` the Potency was inconclusive [inhibitor, partial curve, poor fit].
`Cc1cccc(Cc2c(C)nc3nc(SCc4ccccc4F)nn3c2C)c1` was tested, and the “activity change, negative = inhibition” value was inactive: -5.51%.
With `Cc1ccc(C(=S)N2CCN(Cc3ccccc3)CC2)cc1` the Potency was inconclusive [inhibitor, single point].
For `CCOC(=O)c1ccc(NC(=O)CN2CCc3ccccc3C2)cc1`, the “activity change, negative = inhibition” value was inactive: 0%.
In the case of `CCOC(=O)/C(=N\Nc1ncnc2ccccc12)c1ccc(OC)cc1`, the Potency is reported as inconclusive [inhibitor, single point].
For `CN(CCCC1CCCC1)C(=O)c1cc(COc2ccc(F)cc2F)on1`, the Potency was inconclusive [inhibitor, partial curve, poor fit].
`CN1/C(=C\C(=O)c2cccnc2Cl)C(C)(C)c2ccccc21` was tested, and the Potency was inconclusive [inhibitor, single point].
For `Cn1cnnc1SC1c2cccc3cccc(c23)C1NS(=O)(=O)c1ccc(Cl)cc1` (stereo unspecified), the Potency was inconclusive [inhibitor, partial curve, poor fit].
Further: nearly all actives have a fitted effect of over 55% in size.
On the % scale 0 is the no-effect control and ±100 the full control effect; potency means the concentration at half of the fitted maximal effect; tags describe the fitted curve by direction and shape.
